Experimental data published in the supplement of paper PMC7125110.
± gives the standard error. Variants at the background level are over-represented here.

B1: glmS ribozyme (parent)
chain: AUAAAAGCGCCAGAACUACAGAAAUGUAGUUGACGAGGAGGAGGUUUAUCGAAUUUUCGGCGGAUGCCUCCAAA

Columns and labels:
Details in all cases: with glucosamine-6-phosphate
glucosamine-6-phosphate [1] = variants of: B1; experiment: self-cleavage kobs at 640 uM GlcN6P; higher = faster cleavage; RNA array
In short: (§1)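 Glucosamine-6-phosphate (40 μM to 10 mM) in HEPES/KCl/Mg(OAc)2 buffer was flowed over sequenced MiSeq chips, and tiles were imaged over ~14 h. Barcoded ribozyme variants there had been transcribed in situ by E. coli RNA polymerase and were tracked through a hybridised Cy3 probe at 37 °C. One- or two-exponential decay fits to per-tile medians, normalised to baseline and to non-cleaving reference variants, gave kobs. kcat and KM came from weighted Michaelis–Menten fits across concentrations.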

glucosamine-6-phosphate [2] = variants of: B1; experiment: self-cleavage kobs at 2500 uM GlcN6P; higher = faster cleavage; RNA array
In short: as §1

glucosamine-6-phosphate [3] = variants of: B1; experiment: self-cleavage kobs at 10000 uM GlcN6P; higher = faster cleavage; RNA array
In short: as §1

glucosamine-6-phosphate [4] = variants of: B1; experiment: self-cleavage kobs at 160 uM GlcN6P; higher = faster cleavage; RNA array
In short: as §1

| Variant | self-cleavage kobs at 640 uM GlcN6P (glucosamine-6-phosphate [1]) [s⁻¹] | self-cleavage kobs at 2500 uM GlcN6P (glucosamine-6-phosphate [2]) [s⁻¹] | self-cleavage kobs at 10000 uM GlcN6P (glucosamine-6-phosphate [3]) [s⁻¹] | self-cleavage kobs at 160 uM GlcN6P (glucosamine-6-phosphate [4]) [s⁻¹] |
| --- | --- | --- | --- | --- |
| AUAAAAGCGCAAGACCUACAGAAAUGUAAUUGACGAGGAGGAGAUUUAUCGAAUUUUCGGCGGAUGCCUCCAAA [C11A A15C G29A G44A] | < 1e-05 | < 1e-05 | – | – |
| AUAAAAGCGUCUGAACUACAGAAAUGUAGUUGACGAGGAGGACGUUUAUCGAAUUUUUGGCGGAUGCCUCCAAA [C10U A12U G43C C58U] | < 1e-05 | – | – | – |
| AUAAAAGCGCAAGAACUACAGAAAUGUAGUUGGCGAGGAGGAGGUUUAUCGAAUUUUCGGCCGAUGCCUUCAAA [C11A A33G G62C C70U] | < 1e-05 | – | < 1e-05 | – |
| AUAAAAGCGUCAGAACUACAGAAAUGUAGUUGACGAGGCGGCGGUUUAUCGAAUUUUCGGCGGAUGCCCCCAAA [C10U A39C A42C U69C] | < 1e-05 | < 1e-05 | – | < 1e-05 |
| AUAAAAGCGUCAGAACUACAGAAAUGUAGUUACCGAGGAGGAGGUUUAUCGAACUUUCGGCGUAUGCCUCCAAA [C10U G32A A33C U54C G63U] | < 1e-05 | – | – | – |
| AUAAAAGCGGCAGAACUACAGAAAUGUAGUUGACGAGGAGGAGGUUUAUCAAAUUUUCGGCGGGUGCCUCCAAA [C10G G51A A64G] | < 1e-05 | – | – | < 1e-05 |
| AUAAAAGCGUCAGAACUACAGAAAUGUAGUUGACGAGGAAGAGGUUUAUCGAAUUUUCGGCGGAUUCCUCCAAA [C10U G40A G66U] | < 1e-05 | – | < 1e-05 | – |
| AUAAAAGCGUCAGAACUACAGAAAUGUAGUUGACCAGGAGGAGGUUUAUCGAAUUUUCGACGGAUGCCUCCAAA [C10U G35C G60A] | < 1e-05 | < 1e-05 | – | – |
| AUAAAAGCGUCAGAACUACAGAAAUGUAGUUGAAGAGGAGGAGGUUUAUCGAAUUUUCGGCGGAUGCCUUCAAA [C10U C34A C70U] | < 1e-05 | < 1e-05 | – | – |
| AUAAAAGCGUCAGAACUACAGAAAUGUAGUUGACGAGGAGGAGGUUUAUCGAAUUUUCAGCGGAUGCCUCCAAA [C10U G59A] | < 1e-05 | < 1e-05 | < 1e-05 | – |
| AUAAAAGCGCAAGGACUACAGAAAUGUAGUUGACGAGGAGGAGGUUUAUCGUAUUUUCGGCUGAUGCCUCCAAA [C11A A14G A52U G62U] | < 1e-05 | – | – | – |
| AUAAAAGCGGCAGAACUACAGAAAUGUAGUUGACGAGGAGGAUGGUUAUCGAAUUUUCGGCGGAUGCCUCCAAA [C10G G43U U45G] | < 1e-05 | < 1e-05 | < 1e-05 | < 1e-05 |
| AUAAAAGCGCAAGAACUACAGAAAUGUAGUUGGCUAGGAGGAGGUUUAUCGAAUUUUCGGCGGAUGCCUCCAAA [C11A A33G G35U] | < 1e-05 | – | – | – |
| AUAAAAGCGUCAGAACUACAGAAAUGUAGUUGACGAGGAGGAGGUUUAUCGUAUUUUCGGCGGAUGAAGCCAAA [C10U A52U C67A C68A U69G] | 8.14e-05 ± 3.2e-05 | – | – | – |
| AUAAAAGCGGCAGAACUACAGAAAUGUAGUUGACGAGGAGGAGUUUUAUCGAAUUUUCGGCGGAUGCCUUCAAA [C10G G44U C70U] | < 1e-05 | – | – | – |
| AUAAAAGCGUCAGAACUACAGAAAUGUAGUUGACGAGUAGGAGGUUUAUCGAAUUUUCGGCGGAUGCCACCAAA [C10U G38U U69A] | 8.22e-05 ± 2.4e-05 | – | – | – |
| AUAAAAGCGGCAUACCUACAGAAAUGUAGUUGACGAGGAGGAGGUUUAUCGAAUUUUCGGCGGAUGCCUCCAAA [C10G G13U A15C] | < 1e-05 | – | – | < 1e-05 |
| AUAAAAGCGUCAGAAUUACAGAAAUGUAGUUAACGAGGAGGAGGUUUAUGGAAUUUUCGGCGGAUGCCUCCAAA [C10U C16U G32A C50G] | 0.000327 ± 0.00015 | – | – | – |
| AUAAAAGCGUCAGAACUACAGAAAUGUAGAUGACGAGGAGGAGGUUGAUCGAGUUUUCGGCGGAUGCCUCCAAA [C10U U30A U47G A53G] | < 1e-05 | – | – | < 1e-05 |
| AUAAAAGCGGCAGAACUACAGAAAUGUAGUUGACAAGGAGGAGGUUUAUCGAAUUUUCGACGGAUGCCUCCAAA [C10G G35A G60A] | < 1e-05 | – | – | – |
| AUAAAAGCGGCAGAACUACAGAAAUGUAGUUCACGAGGAGGAGGUUUAUCGAAUUUUCGGCGGAUGCCUCCAAA [C10G G32C] | < 1e-05 | – | – | < 1e-05 |
